Data taken from PubChem BioAssay AID588342 (National Center for Advancing Translational Sciences (NCATS), 2011).
The whole screen tested about 360,000 compounds, of which about 25,000 (6.9%) were called active. This list was built around the results that the source calls inconclusive (neither active nor inactive); the mix of calls is not that of the screen. Calls follow the shape of the dose curve; as a rule, active = well fitted inhibition curve with a large enough effect; inconclusive = small, poorly fitted or top-dose-only effect; inactive = flat fitted curve, though single readings scatter. Where the call is inconclusive, the potency comes from a doubtful curve fit.
Also: nearly all actives have a fitted effect of over 55% in size.
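For activity change, negative = inhibition in this document: plate controls were vehicle for no effect and reference inhibitor for full effect.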
Potency is read from the fitted curve at half-maximal effect; tags tell the direction and shape of the fitted curve.

The compounds below were run against Luciferin 4-monooxygenase (Photinus pyralis) (UniProt P08659) (assay: qHTS profiling assay for firefly luciferase inhibitor/activator using purifed enzyme and Km concentrations of substrates (counterscreen for miR-21 project)). Conditions: purified FLuc, luminescence inhibition; activity change, negative = inhibition: at 57.5 µM (top of the series).
Sequence of UniProt P08659 (P08659 whole entry, looked up): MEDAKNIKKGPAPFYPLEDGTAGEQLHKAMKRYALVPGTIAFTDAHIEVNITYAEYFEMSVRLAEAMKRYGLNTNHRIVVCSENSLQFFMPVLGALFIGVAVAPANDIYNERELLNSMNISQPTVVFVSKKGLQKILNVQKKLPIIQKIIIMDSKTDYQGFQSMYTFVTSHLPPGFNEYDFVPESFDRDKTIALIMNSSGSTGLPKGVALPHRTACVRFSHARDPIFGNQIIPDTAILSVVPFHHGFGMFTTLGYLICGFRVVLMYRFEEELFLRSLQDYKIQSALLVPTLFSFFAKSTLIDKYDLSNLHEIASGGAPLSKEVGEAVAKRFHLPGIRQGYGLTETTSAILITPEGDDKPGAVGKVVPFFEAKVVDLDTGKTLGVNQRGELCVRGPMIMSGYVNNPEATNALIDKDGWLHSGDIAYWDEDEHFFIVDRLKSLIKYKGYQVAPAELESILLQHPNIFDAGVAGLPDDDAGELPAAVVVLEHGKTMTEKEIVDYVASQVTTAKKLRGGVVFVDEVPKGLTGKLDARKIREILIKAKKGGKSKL
In short: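 Biochemical qHTS of compounds, final roughly 60 µM downward over six points, against 10 nM purified firefly luciferase using Km concentrations of substrates (10 uM D-luciferin, 10 uM ATP) in Tris acetate pH 7.5 buffer; luminescence output.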
With `CC(C)c1ccc(OCC(=O)N2CCN(C(=O)c3ccco3)CC2)cc1` the Potency was inconclusive: 37.9 µM [inhibitor, single point].
With `CCc1ccc(NC(=O)CSc2ccc(-c3sc(C)nc3C)nn2)cc1` the Potency was inconclusive: 12 µM [inhibitor, partial curve].
`CCCc1cnc(N2CCN(S(C)(=O)=O)CC2)nc1` was tested, and the Potency was inconclusive: 37.9 µM [inhibitor, partial curve, poor fit].
For `CCOC(=O)CNC(=O)Cn1cnc2c(oc3ccccc32)c1=O`, the “activity change, negative = inhibition” value was inactive: -13.5%.
For `c1ccc(CCSc2ncnc3nc[nH]c23)cc1`, the Potency was active: 15.1 µM.
With `Cc1ccc(F)cc1NC(=O)COC(=O)c1ccc2ncsc2c1` the “activity change, negative = inhibition” value was inactive: 1.34%.
In the case of `C/C(=N\NC(=O)c1ccccc1F)c1cccc(NC(=O)c2ccc(C)cc2)c1`, the Potency was active: 2.39 µM.
In the case of `COc1ccc(C)cc1NC(=O)CSc1ccc(-c2sc(C)nc2C)nn1`, the Potency was inconclusive: 23.9 µM [inhibitor, single point].
With `O=C(Cn1c(=O)n(CCc2c[nH]c3ccccc23)c(=O)c2cccnc21)Nc1ccccc1F` the Potency was inconclusive: 23.9 µM [inhibitor, single point].
`COCC(=O)N(Cc1cc2cccc(C)c2[nH]c1=O)c1ccccc1` was tested, and the “activity change, negative = inhibition” value was inactive: 0.572%.
In the case of `O=C(Nc1nc(-c2ccc(F)c(F)c2)cs1)C1=COCCO1`, the Potency was inconclusive: 6.75 µM [inhibitor, partial curve].
`CC1=NN(C(N)=S)C(=O)C1N=Nc1ccccc1Cl` (configuration not stated) was tested, and the Potency was inconclusive: 23.9 µM [inhibitor, single point].
`O=C(Nc1ccccc1)N1CCCC(c2nc(-c3cccs3)no2)C1` (configuration not stated) was tested, and the Potency was inconclusive: 26.9 µM [inhibitor, single point].
With `CCN(CC(=O)Nc1cc(Cl)ccc1C)C(=O)c1oc2ccc(OC)cc2c1C` the Potency was inconclusive: 37.9 µM [inhibitor, partial curve, poor fit].
For `O=C(OCc1cccnc1)C1=Cc2ccccc2OC1`, the Potency was inconclusive: 23.9 µM [inhibitor, single point].
In the case of `Cn1c(O)c(N=Nc2ccc(F)cc2)c2ccccc21`, the Potency was inconclusive: 23.9 µM [inhibitor, partial curve].
With `COc1ccc(/C=C(\NC(=O)c2ccccc2)C(=O)OCC2CCCN3CCCCC23)cc1OC` (configuration not stated) the “activity change, negative = inhibition” value was inactive: 0.897%.
`Cc1ccc(NC(=S)N2CCN(Cc3ccccc3)CC2)cc1` was tested, and the Potency was active: 12 µM.
With `O=C(/C=C/c1ccccc1)Nc1ncn[nH]1` the Potency was inconclusive: 23.9 µM [inhibitor, partial curve].
In the case of `COc1cc(/C=N/Nc2ccc3ccccc3c2)ccc1OC(=O)c1ccco1`, the Potency was inconclusive: 37.9 µM [inhibitor, single point].
In the case of `COc1ccc(-c2nsc(NC(=O)c3ccccc3Br)n2)cc1`, the Potency was active: 16.9 µM.
With `Cc1nc2ccc(NC(=O)COc3cccc(F)c3)cc2s1` the Potency was inconclusive: 30.1 µM [inhibitor, single point].
`O=C(CSc1ccc([N+](=O)[O-])cn1)Nc1ccc2c(c1)OCO2` was tested, and the Potency was inconclusive: 37.9 µM [inhibitor, partial curve, poor fit].
With `Cc1cccc(NC(=S)NNC(=O)c2nn(C)cc2Cl)c1` the Potency was inconclusive: 42.6 µM [inhibitor, partial curve, poor fit].
`COc1cc(NC(=O)C2CCCN(S(=O)(=O)c3cn(C)cn3)C2)cc(OC)c1` (configuration not stated) was tested, and the “activity change, negative = inhibition” value was inactive: -0.863%.
For `Cn1c(=O)c2c(nc(Sc3ccccc3N)n2C)n(C)c1=O`, the Potency was inconclusive: 37.9 µM [inhibitor, partial curve, poor fit].
In the case of `CC#CC(=O)N1CCC(C(=O)Nc2ccc(Oc3ccccc3)nc2)CC1`, the Potency was inconclusive: 23.9 µM [inhibitor, partial curve].
With `CC(=O)c1ccc(NC(=O)NC2CCCCCCC2)cc1` the Potency was active: 12 µM.
With `CCCOc1ccc(/C=N/Nc2ccc(C(=O)O)cc2)c(OCCC)c1` the Potency was active: 5.36 µM.
With `O=C1c2ccccc2-c2nnc(-c3ccccc3)cc21` the Potency was active: 0.478 µM.
For `Cc1c(Cl)cccc1NC(=O)CSc1nc(=O)n(CCN2CCOCC2)c2c1CCC2`, the “activity change, negative = inhibition” value was inactive: 0.0961%.
With `O=C(Cn1c(=O)c2cccn2c2ccc(F)cc21)NCc1cccc(Cl)c1` the “activity change, negative = inhibition” value was inactive: 4.26%.
With `Fc1cc(F)cc(-c2c(-c3ccccc3)ncc3ccc(F)cc23)c1` the Potency was inconclusive: 26.9 µM [inhibitor, single point].
For `COCC(C)N1CCC(Oc2cccc(C(=O)NCCc3ccccc3)c2)CC1` (configuration not stated), the Potency was inconclusive: 16.9 µM [inhibitor, partial curve].
With `CC(NC(=O)CCc1nnc(CCCc2ccccc2)o1)c1ccccc1` (configuration not stated) the Potency was inconclusive: 19 µM [inhibitor, partial curve].
For `CCc1c(C)nc(Nc2nc(C)c3ccc(OC)cc3n2)[nH]c1=O`, the Potency was inconclusive: 15.1 µM [inhibitor, partial curve].
In the case of `C=C(Cl)COc1ccc2c(C)cc(=O)oc2c1`, the Potency was inconclusive: 21.3 µM [inhibitor, partial curve, poor fit].
For `CC(=O)c1ccc(N2Cc3ccccc3C2=NC(=O)c2cccs2)cc1`, the Potency was inconclusive: 15.1 µM [inhibitor, partial curve].
For `N=c1occ(C(=O)c2cc(F)ccc2O)cc1C(=O)NC1CCCCC1`, the Potency was inconclusive: 23.9 µM [inhibitor, partial curve, poor fit].
`N#Cc1ccccc1Cn1c(SCC(=O)NCc2ccccc2)nc2ccccc21` was tested, and the “activity change, negative = inhibition” value was inactive: 6%.
`Cc1cc(Cl)ccc1OCCCC(=O)NNC(=O)c1ccccc1O` was tested, and the “activity change, negative = inhibition” value was inactive: 8.59%.
For `Cc1sc2nc(SCC(=O)C(C)(C)C)n(Cc3ccco3)c(=O)c2c1C`, the “activity change, negative = inhibition” value was inactive: -0.637%.
With `Cc1ccc(-c2nnc(Nc3cccc(O)c3)c3ccccc23)cc1S(=O)(=O)NCCO` the Potency was inconclusive: 37.9 µM [inhibitor, partial curve, poor fit].
`COc1ccc(CNC(=O)Oc2ccccc2)cc1Cl` was tested, and the Potency was inconclusive: 30.1 µM [inhibitor, single point].
For `COc1cccc(-c2csc(N3CCN(C(=S)Nc4ccccc4Cl)CC3)n2)c1`, the Potency was inconclusive: 21.3 µM [inhibitor, partial curve, poor fit].
With `CC1=NN(c2ccccc2)C(=O)C1C=Nc1ccc(N(C)C)cc1` (configuration not stated) the Potency was inconclusive: 19 µM [inhibitor, partial curve].
`Nc1nonc1-c1nc2ccccc2n1CC(=O)Nc1ccccc1C(=O)O` was tested, and the Potency was inconclusive: 15.1 µM [inhibitor, partial curve].
For `CC(C)(C)c1ccc(S(=O)(=O)Nc2ccc(Cc3ccncc3)cc2)cc1`, the Potency was inconclusive: 33.8 µM [inhibitor, single point].
In the case of `CSC(=S)N/N=C/c1ccc(N(C)C)cc1`, the Potency was active: 2.69 µM.
In the case of `COc1ccc(OC)c(/C=C/C(=O)Nc2cccc(S(=O)(=O)NC3=NCCCCC3)c2)c1`, the Potency was inconclusive: 12 µM [inhibitor, partial curve].
With `O=C(c1nnc(-c2ccc(Cl)cc2)o1)C1CCCC1` the Potency was active: 5.36 µM.
In the case of `Cc1csc(NC(=O)C(CC(C)C)NS(=O)(=O)c2ccc3c(c2)oc(=O)n3C)n1` (configuration not stated), the Potency was inconclusive: 21.3 µM [inhibitor, partial curve].
For `Nc1ccc(C(=O)Nc2ccc(NC(=O)c3ccco3)c(O)c2)cc1`, the Potency was inconclusive: 19 µM [inhibitor, single point].
With `CCOc1ccccc1NC(=O)NCc1ccccc1` the Potency was inconclusive: 23.9 µM [inhibitor, partial curve, poor fit].
With `Cc1ccc(C(=O)NNc2c3ccccc3nc3ccccc23)cc1` the Potency was inconclusive: 13.5 µM [inhibitor, partial curve].
`COc1ccc(-c2cc(=O)oc3cc(OCc4nn[nH]n4)ccc23)cc1` was tested, and the Potency was inconclusive: 30.1 µM [inhibitor, single point].
`Cc1c(NC(=O)COC(=O)C2=COCCO2)cccc1[N+](=O)[O-]` was tested, and the “activity change, negative = inhibition” value was inactive: 4.11%.
For `Cc1cccc(Cn2c(Cc3ccccc3)nc3ccccc32)c1`, the Potency was inconclusive: 10.7 µM [inhibitor, partial curve, poor fit].
For `CCOC(=O)C1(S(=O)(=O)c2ccc(Cl)cc2)CCN(Cc2ccc(C)cc2)CC1`, the “activity change, negative = inhibition” value was inactive: 2.54%.
With `C[C@H](NC(=O)OC(C)(C)C)c1nnc(SCC(=O)Nc2cccc(Cl)c2)o1` the Potency was inconclusive: 21.3 µM [inhibitor, single point].
In the case of `Cc1cccc(NC(=O)/C(C#N)=C/c2ccc(C)o2)c1`, the Potency was active: 9.53 µM.
In the case of `O=C(Nc1ccc(O)cc1)c1ccc(C(=O)c2ccccc2)o1`, the Potency was active: 7.57 µM.
With `CCC(CC)C(=O)Nc1nnc(S(=O)(=O)N2CCCc3ccccc32)s1` the “activity change, negative = inhibition” value was inactive: 0.391%.
For `O=C1CCC(=O)N1OCCCOc1ccc2c(c1)CCC2`, the Potency was inconclusive: 23.9 µM [inhibitor, partial curve, poor fit].
With `N#Cc1c(NC(=O)c2ccc([N+](=O)[O-])o2)sc2c1CCC2` the Potency was active: 4.78 µM.
`CC(C)NC(=O)c1cc2c(s1)CCCC2` was tested, and the Potency was inconclusive: 26.9 µM [inhibitor, single point].
In the case of `CCC(=O)Nc1cccc(-c2nc3cc(C)ccc3o2)c1`, the Potency was active: 2.69 µM.
`COc1ccc(-c2nnc(SCC(=O)NC3CC3)o2)cc1` was tested, and the Potency was inconclusive: 21.3 µM [inhibitor, single point].
With `O=C(O)c1ccc(-c2ccc(O)c(F)c2)cc1` the Potency was inconclusive: 21.3 µM [inhibitor, partial curve, poor fit].
For `S=c1[nH]nc(Cc2ccc(Br)cc2)n1/N=C/c1ccc(Cl)cc1`, the Potency was inconclusive: 23.9 µM [inhibitor, partial curve, poor fit].
For `COc1cccc(CNC(=O)Cn2ncn3cccc3c2=O)c1OC`, the “activity change, negative = inhibition” value was inactive: -0.0905%.
With `CC1(C)Cc2c(cnn2-c2ccc(F)cc2)C(NC(=O)CCN2CCCC2=O)C1` (configuration not stated) the Potency was inconclusive: 23.9 µM [inhibitor, partial curve].
